Measured values as given in PubChem BioAssay AID588342 (National Center for Advancing Translational Sciences (NCATS), 2011).
Hit rate of the full screen: of about 360,000 compounds, about 25,000 (6.9%) were called active. Inconclusive means that the source gave no clear call. Such entries were picked first, then a sample of the others. The call rests on the fitted dose curve; in most records, active means well fitted inhibition curve with a large enough effect; inconclusive means small, poorly fitted or top-dose-only effect; inactive means flat fitted curve, though single readings scatter. Potencies beside an inconclusive call are fits to weak or partial responses and may not hold up.

What follows are compounds tested against Luciferin 4-monooxygenase (Photinus pyralis) (UniProt P08659) (assay: qHTS profiling assay for firefly luciferase inhibitor/activator using purifed enzyme and Km concentrations of substrates (counterscreen for miR-21 project)). Details: purified FLuc, luminescence inhibition; series mostly up to 57.5 µM; activity change, negative = inhibition: at the top concentration.
UniProt P08659, sequence (P08659 whole entry, looked up): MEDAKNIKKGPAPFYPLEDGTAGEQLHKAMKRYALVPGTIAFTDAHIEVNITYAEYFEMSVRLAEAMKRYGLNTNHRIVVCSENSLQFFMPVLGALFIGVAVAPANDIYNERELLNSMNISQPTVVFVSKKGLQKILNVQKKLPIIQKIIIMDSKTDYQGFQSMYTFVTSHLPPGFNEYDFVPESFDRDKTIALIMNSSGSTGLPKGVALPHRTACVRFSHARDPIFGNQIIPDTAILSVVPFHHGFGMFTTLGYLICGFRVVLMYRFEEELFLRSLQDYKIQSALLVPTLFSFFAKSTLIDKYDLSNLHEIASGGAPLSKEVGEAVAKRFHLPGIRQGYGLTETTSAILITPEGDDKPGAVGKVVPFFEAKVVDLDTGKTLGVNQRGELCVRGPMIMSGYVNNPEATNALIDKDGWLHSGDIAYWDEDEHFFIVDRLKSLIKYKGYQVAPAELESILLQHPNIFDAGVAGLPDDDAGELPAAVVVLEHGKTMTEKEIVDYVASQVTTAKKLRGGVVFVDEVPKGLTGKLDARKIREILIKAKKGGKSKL
Method in brief: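 Purified P. pyralis luciferase (10nM final) with 10uM D-luciferin and 10uM ATP (Km levels) in 50mM Tris acetate pH 7.5, 10mM Mg acetate, 0.01% Tween-20, 0.05% BSA; qHTS 6-point titration, ~60 µM downward; luminescence read.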
Further: nearly all actives have a fitted effect of over 55% in size.
Potency means the concentration at half of the fitted maximal effect; tags describe the fitted curve by direction and shape.
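Wherever activity change, negative = inhibition is given: plate controls were vehicle for no effect and reference inhibitor for full effect.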

Compound	Potency	activity change, negative = inhibition
Cc1cc(C)c2cc(C(=O)N3CCc4ccccc4C3)[nH]c2c1	inconclusive: 26.9 µM [inhibitor, single point]	
COc1cccc(-c2nn(-c3ccccc3)cc2C(=O)O)c1	inconclusive: 26.9 µM [inhibitor, single point]	
O=C(COc1ccccc1)Nc1ccc(N2CCCCC2)cc1	inconclusive: 7.57 µM [inhibitor, partial curve, poor fit]	
Cc1nn(-c2ccccc2)c(Cl)c1C(=O)Nc1ccccc1	inconclusive: 16.9 µM [inhibitor, partial curve, poor fit]	
CCOc1ccc(-c2nc(CSc3nncs3)cs2)cc1OC	inconclusive: 23.9 µM [inhibitor, partial curve, poor fit]	
COc1cccc(-c2cc(C(=O)Nc3nc4ccccc4s3)c3ccccc3n2)c1	active: 16.9 µM	
COc1cccc(NC(=O)CCN2C(=O)C3CC=CCC3C2=O)c1 (stereo not drawn)	inconclusive: 16.9 µM [inhibitor, partial curve]	
CC(C)CSc1oc(-c2ccco2)nc1S(=O)(=O)c1ccc(Br)cc1		inactive: -2.22%
CCOC(=O)c1nn(-c2cccc(C)c2)cc1C(=O)c1ccccc1	active: 9.53 µM	
CCC1CCCCN1CCCNC(=O)c1ccc2nc(N3CCC(C)CC3)sc2c1 (stereo not drawn)	inconclusive: 30.1 µM [inhibitor, single point]	
COc1ccccc1C(=O)N/N=C(\C)CC(=O)Nc1ccc(Nc2ccccc2)cc1	inconclusive: 37.9 µM [inhibitor, partial curve, poor fit]	
COc1ccc(C)cc1NC(=O)CC(=O)Nc1ccc2nc3n(c(=O)c2c1)CCCCC3	inconclusive: 30.1 µM [inhibitor, single point]	
COc1ccccc1-c1cc(C(=O)Nc2ccccc2SC)no1	inconclusive: 2.69 µM [inhibitor, partial curve, poor fit]	
Cc1ccc(-c2cc(C(=O)NCCCN3CCOCC3)c3ccccc3n2)cc1	inconclusive: 19 µM [inhibitor, partial curve]	
O=S(=O)(Nc1ccc(-c2cn3cccnc3n2)cc1)c1ccccc1	inconclusive: 19 µM [inhibitor, partial curve, poor fit]	
CCOC(=O)c1c(NC(=O)c2cccc(N3C(=O)CCC3=O)c2)sc2c1CCN(CC)C2		inactive: -0.419%
CCOc1ccc(-n2c(COc3ccccc3)nnc2SCC(N)=O)cc1		inactive: 2.86%
Cc1ccc(S(=O)(=O)Cc2ccc(C(=O)N3CCN(Cc4ccccc4)CC3)o2)cc1		inactive: 0.0958%
O=C(Nc1ccc(N2CCCCC2)c(Cl)c1)c1ccc2c(c1)OCCO2	active: 5.36 µM	
COc1cc(C)ccc1S(=O)(=O)NC1CC(C)(C)NC(C)(C)C1		inactive: -1.18%
ClCC1NCC(c2ccccc2Cl)c2c1[nH]c1ccccc21 (stereo not drawn)		inactive: -6.99%
Cc1nn(C)cc1/C=C1\CCC/C(=C\c2cn(C)nc2C)C1=O	active: 26.9 µM	
COc1ccc(CC(=O)n2[nH]c(=O)ccc2=O)cc1OC	inconclusive: 9.53 µM [inhibitor, partial curve]	
O=C(CN1CCN(Cc2cccc(F)c2)CC1)Nc1ccccc1F		inactive: 1.22%
O=C(CCc1ccccc1)c1c(O)cc(O)cc1O	inconclusive: 37.9 µM [inhibitor, partial curve, poor fit]	

Compound	Potency	activity change, negative = inhibition
C/C(=N\Nc1ccccn1)c1ccc(C#N)cc1	inconclusive: 21.3 µM [inhibitor, partial curve, poor fit]	
CCOC(=O)/C=C/c1ccc2oc3ccccc3c(=O)c2c1	active: 2.39 µM	
Cc1ccc(S(=O)(=O)N2CCC(C(=O)N3CCC3)CC2)cc1	active: 9.53 µM	
Cc1ccc(-c2nc3ccccc3s2)cc1S(=O)(=O)N1CCCC1	inconclusive: 23.9 µM [inhibitor, single point]	
O=C(c1cc(COc2ccc(F)cc2Cl)on1)N1CCC(c2ccncc2)CC1	inconclusive: 23.9 µM [inhibitor, single point]	
Cc1ccc(C(=O)NCCc2ccccc2)cc1S(=O)(=O)N1CCOCC1	inconclusive: 23.9 µM [inhibitor, single point]	
O=C(NCc1cccc2ccccc12)c1cccs1	inconclusive: 37.9 µM [inhibitor, single point]	
CN(c1cccc(NC(=O)COc2ccccc2)c1)S(C)(=O)=O	inconclusive: 15.1 µM [inhibitor, partial curve]	
CSCc1ccc(C(=O)N2CCCC(Nc3ccc4c(c3)OCCO4)C2)o1 (stereo not drawn)	inconclusive: 23.9 µM [inhibitor, single point]	
c1cc(CNc2ccc3c(c2)OCCO3)ccn1	inconclusive: 33.8 µM [inhibitor, single point]	
O=C(NCc1ccco1)c1ccc2c(c1)N(Cc1ccccc1F)C(=O)c1ccccc1S2=O (stereo not drawn)		inactive: -4.04%
COc1ccc(NC(=O)Nc2ccc(F)cc2F)cc1	active: 5.36 µM	
COc1ccccc1COc1ccc2c(C)c(CC(=O)O)c(=O)oc2c1C	inconclusive: 37.9 µM [inhibitor, single point]	
N#Cc1ccncc1S(=O)c1ccc(Cl)cc1 (stereo not drawn)		inactive: -2.35%
CC(C)CCN1C(=O)c2ccc(C(=O)Nc3ccc(O)cc3C(=O)O)cc2C1=O	active: 19 µM	
O=C(Oc1ccccc1)c1cc2ccccc2oc1=O	active: 15.1 µM	
CCC(CC)C(=O)NCCc1cc2ccc(C)cc2[nH]c1=O		inactive: 0.387%
CC1CCN(CC(C)OC(=O)c2ccc3c(c2)OCCO3)CC1 (stereo not drawn)	inconclusive: 37.9 µM [inhibitor, partial curve, poor fit]	
COc1ccc(NC(=O)C2COc3ccccc3O2)cc1 (stereo not drawn)	active: 16.9 µM	
COc1ccccc1N1C(=O)C(Cl)=C(Nc2ccccc2O)C1=O	inconclusive: 21.3 µM [inhibitor, single point]	
C=CCOc1ccc(/C=C2\C(=N)N3N=C(S(=O)(=O)CC)SC3=NC2=O)cc1OC	active: 9.53 µM	
CCOc1ccc2c(=O)c(Oc3ccccc3OCC)coc2c1	inconclusive: 26.9 µM [inhibitor, single point]	
COC(=O)c1sccc1NC(=O)c1csc2c1CCCC2	inconclusive: 23.9 µM [inhibitor, partial curve, poor fit]	
O=C(Nc1ccc(N2CCCC2)c(Cl)c1)c1ccccc1[N+](=O)[O-]	inconclusive: 26.9 µM [inhibitor, single point]	
Cc1ccc(C(=O)Nc2nc(-c3ccc(F)cc3)cs2)o1	active: 30.1 µM	

Compound	Potency	activity change, negative = inhibition
CC1CCC(NC(=O)C2CCN(S(=O)(=O)c3ccc4nc5c(c(C(=O)O)c4c3)CC(C)CC5)CC2)CC1 (stereo not drawn)	inconclusive: 23.9 µM [inhibitor, single point]	
Cc1ccc(NC(=O)Cn2c(=O)c(CNc3ccccc3)cc3cc4c(cc32)OCCO4)cc1		inactive: 1.03%
Cc1ccc(NC(=O)CCN2CCOCC2)cc1C		inactive: -4.68%
CCC1C(=O)NCCN1C(=O)c1ccccc1OC1CCN(S(C)(=O)=O)CC1 (stereo not drawn)		inactive: -2.41%
COc1ccccc1NC(=O)Nc1nc(CC(=O)N2CCN(c3ccc(F)cc3)CC2)cs1		inactive: 2.54%
O=c1[nH]c(-c2ccccc2Cl)nc2c1sc(=S)n2-c1ccccc1	inconclusive: 16.9 µM [inhibitor, partial curve]	
O=C(CSc1nc2ccccc2n1-c1ccccc1)Nc1ncc(Cl)cc1Cl		inactive: -3.15%
CCOC(=O)c1sc(NC(=O)c2cccc(S(=O)(=O)N3CCN(C)CC3)c2)cc1C	inconclusive: 37.9 µM [inhibitor, partial curve, poor fit]	
COC(=O)c1ccc(/C=N/NC(=O)c2ccccc2Cl)cc1	inconclusive: 23.9 µM [inhibitor, partial curve, poor fit]	
CSc1nnc(N2C(=O)C(O)=C(C(=O)c3ccc(C)o3)C2c2ccc(C)cc2)s1 (stereo not drawn)	inconclusive: 2.69 µM [inhibitor, partial curve]	
O=C(Nc1ccccc1-c1ccccc1)C12CC3CC(CC(C3)C1)C2	inconclusive: 23.9 µM [inhibitor, single point]	
N/C(=N\OC(=O)Cc1ccc(Cl)cc1)c1ccccn1	active: 9.53 µM	
FC(F)(F)c1cc(Cl)c2nc(-c3ccccc3)cn2c1	active: 1.9 µM	
CN(Cc1nc(-c2cccs2)no1)CC1COCCO1 (stereo not drawn)	inconclusive: 26.9 µM [inhibitor, single point]	
O=c1oc(Nc2cccc(F)c2)nc2ccccc12	inconclusive: 13.5 µM [inhibitor, partial curve]	
O=C(NCCc1cccc(Cl)c1)c1ccc(Cl)c([N+](=O)[O-])c1	inconclusive: 21.3 µM [inhibitor, partial curve, poor fit]	
CC1CCC(NC(=O)COC(=O)CNC(=O)c2ccc3ccccc3c2)CC1 (stereo not drawn)	inconclusive: 23.9 µM [inhibitor, single point]	
COc1ccc(NC(=S)NC(=O)c2csnn2)cc1	inconclusive: 23.9 µM [inhibitor, single point]	
CCN1CCN(CCCNC(=O)C2CCCN(c3nc4c(C)cc(C)cc4s3)C2)CC1 (stereo not drawn)	active: 16.9 µM	
C/C(=N\Nc1cc(N2CCOCC2)nc(C)n1)c1ccc(F)cc1	inconclusive: 16.9 µM [inhibitor, partial curve]	
O=c1c2ccccc2c(-c2n[nH]c(=S)o2)nn1Cc1ccccc1	inconclusive: 37.9 µM [inhibitor, single point]	
CCC(Sc1nnnn1C)C(=O)Nc1ccc(C(C)=O)cc1 (stereo not drawn)	inconclusive: 19 µM [inhibitor, single point]	
O=C(CN1CCCCC1)Nc1nc(-c2ccc(F)c(F)c2)cs1	inconclusive: 19 µM [inhibitor, single point]	
